# According to the supplement of paper PMC11417369:
# ± gives the standard deviation of the averaged measurements. Some of the results follow.
# Tested on: PfAP2-I AP2 domain 3 (GST-tagged)
# Test: gcPBM binding intensity (ln(normalized median fluorescence intensity)); higher = stronger DNA binding
# Summary of the method: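 Binding of GST-tagged P. falciparum DNA-binding domains, expressed in E. coli and used at about 25 μg on average, was carried out for 1 h in 1× PBS containing 1% milk, 0.2 mg/ml BSA, 0.5% salmon testes DNA and 0.03% Triton X-100. The target was an Agilent 4 × 180k array of primer-extended double-stranded 36-bp intergenic genomic probes plus negative controls, read with Alexa488 anti-GST antibody at 488 nm. Binding intensity is the highest Masliner-normalised natural-log median intensity across replicate spots of either probe orientation.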
row,Sequence,gcPBM binding intensity (ln)
1,TCATTTATTGAGGAATGTACACGTAAAATTTAATAA [XGTACX_site4086],8.28 ± 0.4
2,ATTTTTTTTTTTTTTTTCTTTTTTCTTCTTTTTTTT [CACACA_negctrl_site1223],7.53 ± 0.63
3,ATATATATTATAAAATGTACAAATGTTATATAAAAT [XGTACX_site4750],7.92 ± 0.45
4,TTTTTTTTTTTTTTATGTACATATATATATTTTATT [XGTACX_site6915],8.06 ± 0.36
5,TAAAGGAAATAAAAAACATGCAAATATGAAATATAT [TGCATGCA_site745],7.61 ± 1.1
6,AATTATAAATTGGACACACACATAAAAAATATGTAC [CACACA_site221],7.7 ± 0.64
7,TAAAAAAAAACATGTGCACACGTTTTATCTACATAA [CACACA_site2336],9.58 ± 0.13
8,ATACATAATAACTCCTGTACTTAAAAATGTATATAT [XGTACX_site1071],7.82 ± 0.51
9,TTACATATTATACGAAGTACGTACAAATACTTATAT [XGTACX_site8598],7.96 ± 0.18
10,TTGCATTGTCCATGCGCACACACTACTAGAATAATA [CACACA_site3678],8.4 ± 0.4
11,TTTTTTTTTTTTTTTTTTAAACACCTCAAAAAAAAA [CACACA_negctrl_site807],8.05 ± 0.73
12,TATATAATTATTTATTGTACACTCAAATCGATAAGG [XGTACX_site3216],8.16 ± 0.099
13,ATATAAATATATTTTACACACAATGGAGAAAAAAAT [CACACA_site6450],8.03 ± 0.68
14,GGATTAATATATTTACCACACACCCATTTCGATTTT [CACACA_site9200],7.99 ± 0.67
15,ATCTTGAAGATTATTTGTACACAAAAGTTAAAATAT [XGTACX_site242],7.79 ± 0.47
16,TATTTATAAATATAAACACACAACATTCTATGCATA [CACACA_site3243],7.68 ± 0.37
17,AATGTATTATGTCTTCGTACACATAAATAAATAAAT [XGTACX_site4004],7.79 ± 0.54
18,AACGAACACTATTACACACATACATACATATGTATG [CACACA_site1859],8.05 ± 0.6
19,TTGTTTATTTGTAAAGCTAACAAGAAATGTGAATAT [CACACA_negctrl_site931],7.87 ± 0.6
20,TATACATAAAAATGATGTACATATAATATATATATA [XGTACX_site3863],8.94 ± 0.17
21,TTATTATTATAAAATTGTACTTGGTATATTAACATA [XGTACX_site5829],7.72 ± 0.33
22,TGGATGTTAATATAGTGTACATTTATAAGTCAGTAT [XGTACX_site2949],8.07 ± 0.54

row,Sequence,gcPBM binding intensity (ln)
1,GTGGAAAAAAATAATTGTACACAATAATAAATATAT [XGTACX_site2414],8 ± 0.46
2,GTCAAAAGTTTTTAAGGTACACTTATTTTATTATAA [XGTACX_site7004],7.97 ± 0.33
3,ATGTAATATATGCGGAAATATATTCACAAGACGTCA [CACACA_negctrl_site373],7.67 ± 0.66
4,GAAAAAAAATCCAAGATGCACTATTATTACAAAAAT [GTGCAC_site9516],9.45 ± 0.3
5,ACCTTTATTGTATGAACACACATAAGCTGATACATC [CACACA_site4028],8.14 ± 0.55
6,CACTAAACATATACACGTACATGCAACGGATTTTTT [XGTACX_site461],8.06 ± 0.52
7,AATATATGGTTCCTTGATATTAAATTCAATTTAATG [CACACA_negctrl_site71],7.67 ± 0.47
8,TGTGTATATGTGCAAAGTACAAAAAAGAAATTATTT [XGTACX_site7569],8.55 ± 0.42
9,TAGTATTGTAAAAAAAAAAAAGAAAAAAAAAAAAAA [CACACA_negctrl_site977],8.04 ± 0.73
10,TAAATCTATATCATCACACACACATACATAAATATA [CACACA_site6228],7.83 ± 0.54
11,AAAATATATATAACTTGTACATATACATACGTATAT [XGTACX_site4570],7.53 ± 0.45
12,TGTATATATCAATGTACACACATGCGTATGTTCGTT [CACACA_site7654],7.63 ± 0.5
13,TATAAAAAAAATTGCACACATATTATACAGGACGAC [CACACA_site701],8.71 ± 0.81
14,ATCATATGTATGCATACACACAAAAAATTATATATA [CACACA_site398],7.92 ± 0.45
15,TATAATGATATAACAACACACATGTATGTATTATTA [CACACA_site230],7.33 ± 0.4
16,TCTTATATATGCTTAAATATATTATATTTATTTGAA [CACACA_negctrl_site1757],7.54 ± 0.51
17,TTATTTATGATATATACACACTAACATTATTTATCC [CACACA_site6720],7.75 ± 0.69
18,TTTTTGATGAAATATTATTTTCCTGACTTGGATTAA [CACACA_negctrl_site148],7.44 ± 0.61
19,TGGAGGATAGTTCACAGTACCCAGAAACTCTACGGA [XGTACX_site2560],7.56 ± 0.64
20,AACCATAAATAATTATGTACTAAAAAAAATATATAT [XGTACX_site3415],7.91 ± 0.52
21,ATAATATATTTATGTTGTACAAGGAAAATTTTGAAA [XGTACX_site3472],8.38 ± 0.28
22,GAAATGGAAAAATATACATGCGCATATAAATTAATA [TGCATGCA_site834],7.54 ± 0.59

row,Sequence,gcPBM binding intensity (ln)
1,TTAAAATCTTGAAAAGTGCATTATCATTTTGTAACG [GTGCAC_site9447],11.4 ± 0.73
2,TATAATGATGATGATAGTACGTATGAGTTCAAAAAA [XGTACX_site3656],7.99 ± 0.52
3,TATATATTTATATATGCATGTACATTTTTATTTATT [TGCATGCA_site1048],7.92 ± 0.21
4,CTGAATGTATATATTTGTACATATATATATATATAT [XGTACX_site5557],9.55 ± 0.6
5,TTTTTTTTTTTTAATTAACACACATAAATATATATA [CACACA_site9077],8.09 ± 0.79
6,GGGTATAATAAAAGCACACACAAAGATATAAATATA [CACACA_site3308],8.58 ± 0.057
7,AAAAAAAAAAAACACGCATGTACATAAAAATAATCA [TGCATGCA_site142],7.79 ± 0.52
8,ATATAAAACAACGGGTGTACAAAAAAATAAATAATA [XGTACX_site4094],8.22 ± 0.61
9,AAAGAAATGAAATATACACACATACCTATATACATA [CACACA_site7817],7.61 ± 0.5
10,TATAGATACCTATACACACACACACGGACATATATA [CACACA_site7585],7.87 ± 0.44
11,TTTTTCTTCTGCATTATGCACACTATAATTCGTTAA [CACACA_site2837],10.565 ± 0.007
12,TTTTTAATATATAAAGATAATAATAAATAAAATTCA [CACACA_negctrl_site657],7.32 ± 0.45
13,GTAAACAATTATGAACGTACATAAAATAAATGAACA [XGTACX_site7159],7.92 ± 0.59
14,TGTCTTTTTAAGTTTTGTACATAAATATATTTCAAA [XGTACX_site427],7.86 ± 0.52
15,AGTATACACAGACACACACACACATATATATATATA [CACACA_site8510],9.54 ± 0.52
16,TAATATTATATAAATTGTACTATTTTTTCCTTATTC [XGTACX_site5314],7.62 ± 0.51
17,TATTTATGCACGCGTGCACACACATATGAAAAAAGG [CACACA_site9090],11.1 ± 0.59
18,AATTGCTAATGGTACGAACACACATATAAAGATGCA [CACACA_site8634],7.74 ± 0.66
19,AAGAATGTTAACGTTGCACACAAAAAAAAAGTATAC [CACACA_site8763],8.22 ± 0.73
20,ATATAAGTTATTTTATACAAAAAAAAAAAAAAAAAT [CACACA_negctrl_site1190],7.62 ± 0.44
21,AAAAAAAAAAAAAATACACACACATATATATATATA [CACACA_site8698],9.4 ± 0.23
22,CTTTCATATGTTTTAACACACACGCATATATTATAG [CACACA_site7033],8.28 ± 0.43

row,Sequence,gcPBM binding intensity (ln)
1,ACCTTATAAAAAAAAAGTACATATATAAATAATAAA [XGTACX_site4338],8.29 ± 0.13
2,TCAAATAATTTGTTGACACACACACCCACATACATA [CACACA_site8717],8.205 ± 0.064
3,ATATTTTTTACTATTACACACAAGGGATTATTATTT [CACACA_site3915],7.99 ± 0.69
4,TATACATAATATATATGTACATATATTCTTTATTTT [XGTACX_site4565],7.76 ± 0.28
5,AAACAATAAAAGATTACACACATATATAGCATATAT [CACACA_site1698],7.76 ± 0.61
6,ATATCAAATTCTGAAACACACAAAATTACACCTCTA [CACACA_site169],7.72 ± 0.55
7,TTTTCGATATGCTTTTTTTTTCTACTGTCTTTTTAA [TGCATGCA_negctrl_site54],7.55 ± 0.64
8,TTACTTAATAGACACACACACAAAAAAAAAAAAAAA [CACACA_site6572],8.12 ± 0.49
9,CACATACATAAATACACACACAAAATAATAAAATAA [CACACA_site5304],7.9 ± 0.27
10,CAAAAATATTATTATAGTACATAAATAATATATTTT [XGTACX_site6902],7.41 ± 0.31
11,TAAAAATAGGAGTGTGTGCACATAAATTATATACTA [GTGCAC_site9405],10.1 ± 0.39
12,TATATATATATTTTTTGTACATATTATATAATATAC [XGTACX_site5187],9.025 ± 0.064
13,AAAAAAAAAAAAAAAAAAAAACACCCAAAAAAATAT [XGTACX_negctrl_site210],9.74 ± 0.071
14,GAAAGACAAATTGTGACACACACAAAAAAAAAAAAA [CACACA_site9241],7.99 ± 0.71
15,TTTTCATTTTTCTTTACACACATATATATATATATA [CACACA_site2236],9.52 ± 0.18
16,TAAAAAAAAACAGAAACACACATTATTCATATAGAT [CACACA_site7052],7.5 ± 0.56
17,AAAAGCACCGTTCGTTGTACACTGAAACACTTTTGT [XGTACX_site199],8.2 ± 0.76
18,GTTATAAATTTTTTTTTTTTTTTTTTTTTTTTTTTT [CACACA_negctrl_site848],9.9 ± 0.13
19,AACAAATTGAAACAATAATTGGAAAAAAAAAAAAAA [CACACA_negctrl_site1145],8 ± 0.76
20,AACAAATACGGACACACACACACACTAGAAAAAAAA [CACACA_site4442],8.4 ± 0.11
21,ATAAAATAAAAGGAATGTACTTTTTTTATTGTAATT [XGTACX_site4372],7.76 ± 0.4
22,ATTTTTTTCCACTAGTGTACAAATTTTACATTGTGT [XGTACX_site5023],8.52 ± 0.47
